The campaign covered roughly 310,000 compounds. About 14,000 (4.5%) showed an effect of 50% or more. The effect is printed as a negative number. The list shows a part of the results.
Molecular target: human ether-à-go-go-related gene (hERG) potassium channel (human, UniProt Q12809)
Assay: primary screen, population patch clamp on CHO cells stably expressing hERG
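Note: peak tail current of the secondary pulse compared with the same well before compound.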

Sequence of human ether-à-go-go-related gene (hERG) potassium channel (Q12809 whole entry, looked up): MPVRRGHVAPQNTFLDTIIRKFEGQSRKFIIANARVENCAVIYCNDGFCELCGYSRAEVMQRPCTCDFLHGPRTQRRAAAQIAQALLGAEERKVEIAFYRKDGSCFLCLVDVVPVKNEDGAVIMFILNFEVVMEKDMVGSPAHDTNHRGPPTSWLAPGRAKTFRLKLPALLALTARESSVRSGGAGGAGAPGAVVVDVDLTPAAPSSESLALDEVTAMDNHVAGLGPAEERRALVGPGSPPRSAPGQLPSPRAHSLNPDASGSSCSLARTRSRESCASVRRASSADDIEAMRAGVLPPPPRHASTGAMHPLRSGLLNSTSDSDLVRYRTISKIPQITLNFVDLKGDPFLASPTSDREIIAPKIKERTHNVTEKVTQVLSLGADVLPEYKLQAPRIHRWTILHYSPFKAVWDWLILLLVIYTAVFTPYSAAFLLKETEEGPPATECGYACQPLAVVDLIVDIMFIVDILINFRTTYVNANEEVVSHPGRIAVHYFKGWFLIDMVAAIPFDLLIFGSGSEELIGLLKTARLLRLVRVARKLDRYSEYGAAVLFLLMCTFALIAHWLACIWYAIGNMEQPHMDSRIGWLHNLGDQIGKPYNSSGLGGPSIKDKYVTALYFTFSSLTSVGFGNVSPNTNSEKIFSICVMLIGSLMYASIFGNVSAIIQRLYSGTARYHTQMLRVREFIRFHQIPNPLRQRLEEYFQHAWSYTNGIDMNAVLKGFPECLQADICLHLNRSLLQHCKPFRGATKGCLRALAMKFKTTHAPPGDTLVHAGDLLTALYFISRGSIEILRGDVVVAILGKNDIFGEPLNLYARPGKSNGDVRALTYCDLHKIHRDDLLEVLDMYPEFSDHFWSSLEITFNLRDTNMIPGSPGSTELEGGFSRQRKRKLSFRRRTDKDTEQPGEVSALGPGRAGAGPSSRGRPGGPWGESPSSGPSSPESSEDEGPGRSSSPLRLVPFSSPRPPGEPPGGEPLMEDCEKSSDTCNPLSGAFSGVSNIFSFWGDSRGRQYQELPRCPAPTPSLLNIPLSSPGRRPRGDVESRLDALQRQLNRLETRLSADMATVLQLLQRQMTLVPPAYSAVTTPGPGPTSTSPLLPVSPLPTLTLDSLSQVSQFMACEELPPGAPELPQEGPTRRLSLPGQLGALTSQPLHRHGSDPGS

| Structure (SMILES) | hERG current change (%, negative = inhibition) at 10uM [%] |
| --- | --- |
| O=C(Nc1ccc(N2CCN(C(=O)c3cccs3)CC2)cc1)c1ccc(Br)o1 | -75.8 |
| CNC(=O)/C(C#N)=C/c1ccc(-c2nc3ccccc3s2)o1 | 4.81 |
| Cc1nc2ccc(NC(=O)Cc3ccc4c(c3)OCCO4)cc2s1 | 33.4 |
| O=C(COc1ccccc1O)c1cccs1 | 7.67 |
| CC(C)NC(=O)NS(=O)(=O)c1cnccc1NC1CC2CCC1C2 (centres unmarked) | 3.42 |
| Cc1ccccc1-n1c(O)c(C=Nc2ccc(N(C)C)cc2)c(=O)[nH]c1=O | -21.9 |
| CSc1cccc(NC(=S)Nc2cc(C)ccc2C)c1 | 3.75 |
| COc1ccc(N2C(=NC(=O)C3CC3)SC3CS(=O)(=O)CC32)cc1Cl (centres unmarked) | 1.69 |
| CN(C(=O)c1ccc(NC(=O)Cc2cccc(NC(=O)C3CCN(C(=O)C4CCCCC4)CC3)c2)cc1)C1CCCC1 | 9.93 |
| COc1ccc(C(=O)N/C(=C/c2ccco2)C(=O)NCc2ccco2)cc1 | -30.1 |
| Cc1ccc(NC(=O)CSCC(=O)Nc2ccc(S(=O)(=O)N3CCOCC3)cc2)cc1 | 5.39 |
| COCCN(CC(=O)NC1CCCCC1)C(=O)c1csnn1 | 12 |
| O=C(Nc1nc2ccccc2s1)c1ccc([N+](=O)[O-])o1 | 17.1 |
| Cn1c(=O)c2c(O)cc(=O)n(-c3ccccc3)c2n(C)c1=O | 8.41 |
| CCOc1ccc(C(=O)NCC(=O)N2CCCCCCC2)cc1OCC | 1.47 |
| COc1cc(Br)c(S(=O)(=O)Nc2c(C)n(C)n(-c3ccccc3)c2=O)cc1OC | 11.1 |
| O=C(Cn1nc(-c2ccccc2)ccc1=O)N1CCC2(CC1)OCCO2 | -1.12 |
| Cc1[nH][nH]c(=O)c1C(c1ccc(Cl)cc1)c1c(C)[nH][nH]c1=O | 15 |
| Cc1c(NC(=O)CC(=O)Nc2c(C)n(C)n(-c3ccccc3)c2=O)c(=O)n(-c2ccccc2)n1C | 12.2 |
| CCCCN(CC)S(=O)(=O)c1ccc2c(c1)n(C)c(=O)c(=O)n2C | -31.7 |
| O=C(Oc1ccccc1N1C(=O)C2CC=CCC2C1=O)c1ccc(Br)cc1 (centres unmarked) | -3.07 |
| CCOC(=O)Cn1nnnc1C(CC)N(Cc1cccs1)Cc1cc2cc(C)ccc2[nH]c1=O (centres unmarked) | -6.3 |

| Structure (SMILES) | hERG current change (%, negative = inhibition) at 10uM [%] |
| --- | --- |
| COc1cc2[nH]c(=S)n(NC(=O)c3ccccc3)c(=O)c2cc1OC | 2.51 |
| N/C(Cc1cccc2ccccc12)=N\OC(=O)c1ccc2c(c1)OCO2 | 9.17 |
| O=C(c1ccco1)N1CCN(CCCCN2C(=O)c3ccccc3C2=O)CC1 | -40 |
| O=[N+]([O-])c1ccc(CN2CCN(c3nc4ccccc4s3)CC2)cc1 | -1.07 |
| CC(C)(C)NC(=O)c1ccccc1NC(=O)C1CC(=O)N(C2CCCCC2)C1 (centres unmarked) | 2.85 |
| O=C(NCCc1ccc(Cl)cc1)C1CCC(CNc2nc(=S)[nH]c3ccccc23)CC1 (centres unmarked) | -3.48 |
| COc1cc(C(=O)NCC2CCCO2)ccc1OCc1ccc(Cl)cc1 (centres unmarked) | -1.43 |
| CCOC(=O)N1CCN(C(=O)CS(=O)(=O)c2cn(Cc3ccc(Cl)cc3)c3ccccc23)CC1 | -39.3 |
| COc1ccc(-n2nc(C(=O)NCC(=O)N3CC(C)CC(C)C3)c3ccccc3c2=O)cc1 (centres unmarked) | 1.45 |
| C/C(=N\Nc1nc2ccccc2[nH]1)c1ccc([N+](=O)[O-])cc1 | 10.9 |
| CCOC(=O)NCN1C(=O)C2C3C=CC(C3)C2C1=O (centres unmarked) | -11.9 |
| CCCNC(=O)CS(=O)Cc1nc(-c2ccccc2C)oc1C (centres unmarked) | 6.71 |
| Cc1ccc(S(=O)(=O)CCC(=O)OCc2ccccc2)cc1 | 8.36 |
| Cc1cc(-n2c(C)cc(C(=O)CN3C(=O)NC4(CCCCCC4)C3=O)c2C)no1 | -4.62 |
| Cc1cccc2c1cnn2C(=O)Nc1cc(F)ccc1F | 16.5 |
| Cc1sc2nc(C(C)(C)C)oc(=O)c2c1C | 4.72 |
| O=C(CN1C(=O)c2cccc3cccc1c23)NCc1ccc2c(c1)OCO2 | -13.2 |
| CCc1nc(C(N)=O)c2[nH]c(=O)n(-c3ccc(OC)cc3OC)c2n1 | 13.5 |
| Cc1ccc(C(C[N+](=O)[O-])c2c(C)[nH]n(-c3ccccc3)c2=O)cc1 (centres unmarked) | -4.88 |
| O=C(OCC(=O)N1CCCC1)c1cccs1 | 16.2 |
| Cc1ccccc1NC(=O)CCN1CCc2ccccc2C1 | -0.685 |
| CCc1ccc(OCC(O)CN2CCCC2)cc1.Cl (centres unmarked) | -13.8 |

| Structure (SMILES) | hERG current change (%, negative = inhibition) at 10uM [%] |
| --- | --- |
| Cc1nn(C(C)C(=O)NCCc2ccco2)c(=O)c2nn(-c3ccccc3)c(C)c12 (centres unmarked) | 10.6 |
| CCS(=O)(=O)n1nc(-c2ccc(Cl)cc2)nc1SCc1ccccc1 | -3.32 |
| CCC(=O)N1c2ccc(S(=O)(=O)N3CCCCC3)cc2CC1C (centres unmarked) | 17.8 |
| CC(C)(C)OC(=O)NN1CC(=O)N2Cc3[nH]c4ccccc4c3C[C@H]2C1=O | -1.3 |
| O=C(Nc1ccc(Oc2ccc(NC(=O)C3CCCO3)cc2)cc1)C1CCCO1 (centres unmarked) | 13.5 |
| O=C(Nc1ccc(-c2cnco2)cc1)c1ccccc1 | 13.8 |
| COc1ccc2oc(C(=O)OCC(=O)NCc3ccccc3OC)c(C)c2c1 | 20 |
| CC(=O)c1ccc(N2CCN(S(=O)(=O)c3c(C(=O)N4CCCCC4)c(C)n(C)c3C)CC2)cc1 | -2.75 |
| O=C(O)C(CO)N=Cc1c(O)c2ccccc2oc1=O (centres unmarked) | 14 |
| COc1ccc(Cc2nc(N)nc(N)n2)cc1 | 6.61 |
| CCc1ccccc1N1C(=O)CN(Cc2cc(OC)c(OC)c(OC)c2)C1=S | 13.9 |
| Cn1c(SCC(=O)NC(=O)CN2CCCC2=O)nnc1-c1ccc(F)cc1 | -1.09 |
| O=P(c1ccccc1)(c1ccccc1)C(c1ccccn1)P(=O)(c1ccccc1)c1ccccc1 | 3.19 |
| COc1cc(CNCc2cccs2)ccc1OCC(=O)NC(C)(C)C.Cl | -4.1 |
| CC1(c2ccc(Cl)cc2)NC(=O)N(CC(=O)NCCC2=CCCCC2)C1=O (centres unmarked) | -2.42 |
| CCOc1cccc(/C=N/NC(=O)C2CCCC2)c1O | 11.1 |
| O=S(=O)(c1ccc(Oc2ccc(S(=O)(=O)N(CCO)CCO)cc2)cc1)N(CCO)CCO | 18.6 |
| CC(=O)N/C(=C/c1ccc2c(c1)OCO2)C(=O)N1CCOCC1 | -9.95 |
| CC(C)NC(=O)CSc1nnc(-c2ccco2)n1N | 14.4 |
| COCC1CCCN(Cc2cn(Cc3ccccc3)nc2-c2cc3ccccc3o2)C1 (centres unmarked) | -72.8 |
| Cc1sc2ncnc(NCCCn3ccnc3)c2c1C | -46.1 |
| CCC(C)[C@H](NC(=O)NCCCc1ccccc1)C(=O)OC (some centres unmarked) | -12.9 |

| Structure (SMILES) | hERG current change (%, negative = inhibition) at 10uM [%] |
| --- | --- |
| C#CCOCCOCCOCCNc1nc(N2CCN(C(=O)CCCCCCCCCCNC(=O)[C@H]([C@@H](C)CC)n3cc(CCCCCN)nn3)CC2)nc(N2CCN(C(=O)CCCCCCCCCCNC(=O)[C@H](CO)n3cc(CCCCCN)nn3)CC2)n1 | -3.99 |
| CCNC(=O)C1CCCN1S(=O)(=O)c1ccc(OC)cc1 (centres unmarked) | 17.6 |
| CSC1=NCCN1S(=O)(=O)c1ccc(C)cc1 | -13.8 |
| CCN(C(=O)c1cn(C)c(=O)c2cc(OC)c(OC)cc12)c1cc(C)ccc1C | -0.626 |
| CCNc1nc(N2CCCCC2)nc(-n2nnc(C(=O)OCC)c2C)n1 | -42.3 |
| COC(=O)C1=CO[C@@H](C)[C@@H]2CN3CC[C@]4(C(=O)Nc5ccccc54)[C@@H]3C[C@H]12 | 5.28 |
| CC(C)[C@H](NC(=O)NCc1ccc(Cl)cc1)C(=O)O | 2.45 |
| Cc1cc(OCCCCN2C(=O)NC(C)(C)C2=O)cc(C)c1Cl | -8.79 |
| C[N+]1(C2CCC3CCCC2C3O)CCCCC1.[I-] (centres unmarked) | 17.7 |
| CN(C)c1ccc(/C=N/NC(=O)c2cccc(N3CCCC3=O)c2)cc1 | 12.7 |
| NC(=O)Cc1ncc(C(F)(F)F)cc1Cl | 21.8 |
| CN(C)CCOc1cccc(Br)c1.O=C(O)C(=O)O | 0.472 |
| CC(=O)c1c(C)oc2c1cc(NS(=O)(=O)c1ccc(C(=O)O)cc1)c1ccccc12 | 14.3 |
| CCOC(=O)c1sc2ncn(/N=C/c3cccnc3)c(=O)c2c1C | -16.1 |
| CC(C)(C)C1c2[nH]c3ccccc3c2CCN1CCCn1cccn1 (centres unmarked) | -19.5 |
| Cc1ccc(CN2CCN(Cc3ccc4ncccc4c3)CC2CCO)cc1 (centres unmarked) | -58.9 |
| O=C(Nc1cccc(Cl)c1)C1C2C=CC3(O2)C1C(=O)N(CCCN1CCCCC1)C3C(=O)NC1CCCCC1 (centres unmarked) | 4.87 |
| O=c1cc(N2CCC(Cc3ccccc3)CC2)[nH]c(=O)n1C1CCCCC1 | 10.3 |
| Cc1nn(C)c(C(=O)Nc2ccc(Cn3cccn3)cc2)c1[N+](=O)[O-] | -7.07 |
| O=C(Oc1cc(=O)oc2c1c(=O)n1c3c(cccc23)CC1)c1ccccc1 | 1.43 |

From paper PMC4336329 (PLoS ONE, 2015)
